Data: patent publication US8648074B2, “Substituted octahydropyrrolo[1,2-a]pyrazine sulfonamides as calcium channel blockers” (AbbVie Inc., priority 2011, dated 2014)

target: human Cav2.2 (Homo sapiens, UniProt Q00975); test: In vitro assessment of calcium channel activity using FLIPR (Ca2+ influx in IMR32 cells); assay type: cell-based; conditions: IMR32 cells endogenously expressing human Cav2.2; Calcium 4 dye, 60 minute pre-incubation, 2 μM nifedipine, depolarized with 80 mM KCl; average of at least two runs unless marked *
Experimental: The IMR32 cells were maintained in MEM media containing 10% (v/v) FBS, 1% (v/v) antibiotic/antimitotic, 1% (v/v) sodium pyruvate and 1% (v/v) MEM NEAA. Following dissociation in 0.05% (v/v) trypsin/EDTA, cells were seeded into black 1×96-well plates (Corning Cellbind) at a density of 1−1.2×10^5 cells/well and incubated in the maintenance media above for 48 hours at 37° C. Immediately prior to performing the assay the media was removed and cells were loaded for 1.5 hours with 1× Calcium 4 dye prepared in HBSS (137 mM NaCl, 5.4 mM KCl, 0.25 mM Na2HPO4, 0.44 mM KH2PO4, 1.3 mM CaCl2, 1 mM MgSO4, 4.2 mM NaHCO3) containing HEPES pH 7.4 at room temperature. After dye loading and a subsequent 60 minute pre-incubation with compounds (full log dilutions from 10 μM to 0.1 nM) in the presence of 1.3 mM CaCl2 and 2 μM nifedipine to block endogenous L-type channels, the external Ca^2+ concentration was increased to 5 mM CaCl2 and the cells concomitantly depolarized with 80 mM KCl to assay channel activity. To determine the IC50 values, the percent inhibition of the compound at each concentration was determined relative to the activity in the absence of inhibitor, and data was fitted using non-linear regression sigmoidal dose response curve analysis with GraphPad Prism®. Unless otherwise indicated (*), the reported values are average values from at least two runs (i.e., n≧2).

| SMILES | IC50 [nM] |
| --- | --- |
| O=S(=O)(c1cccc(OC(F)F)c1)N1CCN2C[C@H](Oc3cnc(C4CC4)cn3)C[C@H]2C1 [Example 30, (7R,8aS)-7-[(5-cyclopropylpyrazin-2-yl)oxy]-2-{[3-(difluoromethoxy)-phenyl]sulfonyl}octahydropyrrolo[1,2-a]pyrazine] | 750 |
| O=S(=O)(c1ccccc1F)N1CCN2C[C@H](Oc3cnc(C4CC4)cn3)C[C@H]2C1 [Example 31, (7R,8aS)-7-[(5-cyclopropylpyrazin-2-yl)oxy]-2-[(2-fluorophenyl)sulfonyl]-octahydropyrrolo[1,2-a]pyrazine] | 2310 |
| O=S(=O)(c1cc(C(F)(F)F)ccc1F)N1CCN2C[C@H](Oc3cnc(C4CC4)cn3)C[C@H]2C1 [Example 32, (7R,8aS)-7-[(5-cyclopropylpyrazin-2-yl)oxy]-2-{[2-fluoro-5-(trifluoromethyl)phenyl]sulfonyl}octahydropyrrolo[1,2-a]pyrazine] | 1280 |
| O=S(=O)(c1ccco1)N1CCN2C[C@H](Oc3cnc(C4CC4)cn3)C[C@H]2C1 [Example 33, (7R,8aS)-7-[(5-cyclopropylpyrazin-2-yl)oxy]-2-(2-furylsulfonyl)octahydropyrrolo[1,2-a]pyrazine] | 6330 |
| O=S(=O)(c1cccc(OC(F)(F)F)c1)N1CCN2C[C@H](Oc3cnc(C4CC4)cn3)C[C@H]2C1 [Example 34, (7R,8aS)-7-[(5-cyclopropylpyrazin-2-yl)oxy]-2-{[3-(trifluoromethoxy)-phenyl]sulfonyl}octahydropyrrolo[1,2-a]pyrazine] | 580 |
| O=C(NC(c1ccccc1)c1ccccc1)[C@H]1C[C@H]2CN(S(=O)(=O)c3cccc(C(F)(F)F)c3)CCN2C1 [Example 37, (7S,8aS)—N-(diphenylmethyl)-2-{[3-(trifluoromethyl)phenyl]-sulfonyl}-octahydropyrrolo[1,2-a]pyrazine-7-carboxamide] | 920 |
| O=C(NC(c1ccccc1)c1ccccc1)[C@H]1C[C@H]2CN(S(=O)(=O)c3ccc(C(F)(F)F)cc3)CCN2C1 [Example 38, (7S,8aS)—N-(diphenylmethyl)-2-{[4-(trifluoromethyl)phenyl]sulfonyl}-octahydropyrrolo[1,2-a]pyrazine-7-carboxamide] | 1020 |
| O=C(NC(c1ccccc1)c1ccccc1)[C@H]1C[C@H]2CN(S(=O)(=O)c3ccc(F)c(C(F)(F)F)c3)CCN2C1 [Example 39, (7S,8aS)—N-(diphenylmethyl)-2-{[4-fluoro-3-(trifluoromethyl)phenyl]-sulfonyl}octahydropyrrolo[1,2-a]pyrazine-7-carboxamide] | 1890 |
| O=C(NCCCC(F)(F)F)[C@H]1C[C@H]2CN(S(=O)(=O)c3cccc(C(F)(F)F)c3)CCN2C1 [Example 40, (7S,8aS)—N-(4,4,4-trifluorobutyl)-2-{[3-(trifluoromethyl)phenyl]-sulfonyl}octahydropyrrolo[1,2-a]pyrazine-7-carboxamide] | 1400 |
| O=S(=O)(c1cccc(C(F)(F)F)c1)N1CCN2C[C@@H](Oc3ccc(OC(F)(F)F)cc3)C[C@H]2C1 [Example 41, (7S,8aS)-7-[4-(trifluoromethoxy)phenoxy]-2-{[3-(trifluoromethyl)phenyl]-sulfonyl}octahydropyrrolo[1,2-a]pyrazine] | 720 |
| CC(C)(C)c1ccc(O[C@H]2C[C@H]3CN(S(=O)(=O)c4cccc(C(F)(F)F)c4)CCN3C2)cc1 [Example 42, (7S,8aS)-7-(4-tert-butylphenoxy)-2-{[3-(trifluoromethyl)phenyl]-sulfonyl}octahydropyrrolo[1,2-a]pyrazine] | 1210 |
| O=S(=O)(c1cccc(C(F)(F)F)c1)N1CCN2C[C@@H](Oc3ccc(-n4ccnc4)cc3)C[C@H]2C1 [Example 43, (7S,8aS)-7-[4-(1H-imidazol-1-yl)phenoxy]-2-{[3-(trifluoromethyl)phenyl]-sulfonyl}octahydropyrrolo[1,2-a]pyrazine] | 1090 |
| O=S(=O)(c1cccc(C(F)(F)F)c1)N1CCN2C[C@H](Oc3ccc(C4CC4)nn3)C[C@H]2C1 [Example 44, (7R,8aS)-7-[(6-cyclopropylpyridazin-3-yl)oxy]-2-{[3-(trifluoromethyl)-phenyl]sulfonyl}octahydropyrrolo[1,2-a]pyrazine] | 1300 |
| O=S(=O)(c1ccc(C(F)(F)F)cc1)N1CCN2C[C@H](Oc3ccc(C4CC4)nn3)C[C@H]2C1 [Example 45, (7R,8aS)-7-[(6-cyclopropylpyridazin-3-yl)oxy]-2-{[4-(trifluoromethyl)-phenyl]sulfonyl}octahydropyrrolo[1,2-a]pyrazine] | 3040 |
| O=S(=O)(c1cccc(C(F)(F)F)c1)N1CCN2C[C@H](Oc3nccc(C4CC4)n3)C[C@H]2C1 [Example 46, (7R,8aS)-7-[(4-cyclopropylpyrimidin-2-yl)oxy]-2-{[3-(trifluoromethyl)-phenyl]sulfonyl}octahydropyrrolo[1,2-a]pyrazine] | 1230 |
| O=S(=O)(c1ccc(C(F)(F)F)cc1)N1CCN2C[C@H](Oc3nccc(C4CC4)n3)C[C@H]2C1 [Example 47, (7R,8aS)-7-[(4-cyclopropylpyrimidin-2-yl)oxy]-2-{[4-(trifluoromethyl)-phenyl]sulfonyl}octahydropyrrolo[1,2-a]pyrazine] | 2170 |
| CC(=O)c1ccc(S(=O)(=O)N2CCN3C[C@H](Oc4cnc(C5CC5)cn4)C[C@H]3C2)cc1 [Example 48, 1-(4-{[(7R,8aS)-7-[(5-cyclopropylpyrazin-2-yl)oxy]hexahydropyrrolo[1,2-a]-pyrazin-2(1H)-yl]sulfonyl}phenyl)ethanone] | 9660 |
| O=S(=O)(c1cccc(C(F)(F)F)c1)N1CCN2C[C@@H](Oc3cnc(C4CC4)cn3)C[C@H]2C1 [Example 49, (7S,8aS)-7-[(5-cyclopropylpyrazin-2-yl)oxy]-2-{[3-(trifluoromethyl)-phenyl]sulfonyl}octahydropyrrolo[1,2-a]pyrazine] | 280 |
| O=S(=O)(c1ccc(C(F)(F)F)cc1)N1CCN2C[C@@H](Oc3cnc(C4CC4)cn3)C[C@H]2C1 [Example 50, (7S,8aS)-7-[(5-cyclopropylpyrazin-2-yl)oxy]-2-{[4-(trifluoromethyl)phenyl]-sulfonyl}octahydropyrrolo[1,2-a]pyrazine] | 1570 |

Next, values leading:

| IC50 [nM] | SMILES |
| --- | --- |
| 1390 | O=S(=O)(c1cc(F)cc(C(F)(F)F)c1)N1CCN2C[C@H](Oc3cnc(C4CC4)cn3)C[C@H]2C1 [Example 51, (7R,8aS)-7-[(5-cyclopropylpyrazin-2-yl)oxy]-2-{[3-fluoro-5-(trifluoromethyl)phenyl]sulfonyl}octahydropyrrolo[1,2-a]pyrazine] |
| 510 | O=S(=O)(c1ccc(F)c(C(F)(F)F)c1)N1CCN2C[C@H](Oc3cnc(C4CC4)cn3)C[C@H]2C1 [Example 52, (7R,8aS)-7-[(5-cyclopropylpyrazin-2-yl)oxy]-2-{[4-fluoro-3-(trifluoromethyl)phenyl]sulfonyl}octahydropyrrolo[1,2-a]pyrazine] |
| 180 | CC(C)(C)c1cccc(S(=O)(=O)N2CCN3C[C@H](Oc4cnc(C5CC5)cn4)C[C@H]3C2)c1 [Example 53, (7R,8aS)-2-[(3-tert-butylphenyl)sulfonyl]-7-[(5-cyclopropylpyrazin-2-yl)-oxy]octahydropyrrolo[1,2-a]pyrazine] |
| 1460 | O=S(=O)(c1ccc(C(F)(F)F)cc1)N1CCN2C[C@@H](Oc3cnc(C4CC4)cn3)C[C@@H]2C1 [Example 54, (7S,8aR)-7-[(5-cyclopropylpyrazin-2-yl)oxy]-2-{[4-(trifluoromethyl)phenyl]-sulfonyl}octahydropyrrolo[1,2-a]pyrazine] |
| 1140 | O=S(=O)(c1cccc(Cl)c1)N1CCN2C[C@H](Oc3cnc(C4CC4)cn3)C[C@H]2C1 [Example 55, (7R,8aS)-2-[(3-chlorophenyl)sulfonyl]-7-[(5-cyclopropylpyrazin-2-yl)oxy]-octahydropyrrolo[1,2-a]pyrazine] |
| 2900 | CC(C)(C)c1ccc(S(=O)(=O)N2CCN3C[C@H](Oc4cnc(C5CC5)cn4)C[C@H]3C2)cc1 [Example 56, (7R,8aS)-2-[(4-tert-butylphenyl)sulfonyl]-7-[(5-cyclopropylpyrazin-2-yl)-oxy]octahydropyrrolo[1,2-a]pyrazine] |
| 1830 | COc1ccc(S(=O)(=O)N2CCN3C[C@H](Oc4cnc(C5CC5)cn4)C[C@H]3C2)cc1C(C)(C)C [Example 57, (7R,8aS)-2-[(3-tert-butyl-4-methoxyphenyl)sulfonyl]-7-[(5-cyclopropylpyrazin-2-yl)oxy]octahydropyrrolo[1,2-a]pyrazine] |
| 250 | CC(C)(C)c1cccc(S(=O)(=O)N2CCN3C[C@H](Oc4cnc(C5CC5)cn4)C[C@H]3C2)n1 [Example 58, (7R,8aS)-2-[(6-tert-butylpyridin-2-yl)sulfonyl]-7-[(5-cyclopropylpyrazin-2-yl)oxy]octahydropyrrolo[1,2-a]pyrazine] |
| 1620 | O=S(=O)(c1cccc(N2CCOCC2)n1)N1CCN2C[C@H](Oc3cnc(C4CC4)cn3)C[C@H]2C1 [Example 59, (7R,8aS)-7-[(5-cyclopropylpyrazin-2-yl)oxy]-2-{[6-(morpholin-4-yl)pyridin-2-yl]sulfonyl}octahydropyrrolo[1,2-a]pyrazine] |
